Laboratory results as given in the supplement of paper PMC8728848.
Some of the results follow.

Columns and labels:
Assay in all cases: glycan array binding signal (z-score within array); higher = stronger binding
Conditions in all cases: glycan notation: IUPAC condensed, linker removed
[1] = molecular target: Fuc(a1-2)Gal
How it was run: (§1)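 The binding signal is a Z-score computed within each array. Data were drawn from 3228 arrays in the Consortium for Functional Glycomics database, restricted to those with a known protein sequence. Scores were averaged over arrays of the same protein sequence at different concentrations or buffers, and over linkers, and negative values can be taken as non-binding.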

[2] = molecular target: Fuc(a1-2)Gal(b1-3)GalNAc
How it was run: as §1

[3] = molecular target: Fuc(a1-2)Gal(b1-3)GalNAc(a1-3)[Fuc(a1-2)]Gal(b1-4)Glc
How it was run: as §1

[4] = molecular target: Fuc(a1-2)Gal(b1-3)GalNAc(a1-3)[Fuc(a1-2)]Gal(b1-4)GlcNAc
How it was run: as §1

[5] = molecular target: Fuc(a1-2)Gal(b1-3)GalNAc(b1-3)Gal
How it was run: as §1

[6] = molecular target: Fuc(a1-2)Gal(b1-3)GalNAc(b1-3)Gal(a1-4)Gal(b1-4)Glc
How it was run: as §1

[7] = molecular target: Fuc(a1-2)Gal(b1-3)GalNAc(b1-4)[Neu5Ac(a2-3)]Gal(b1-4)Glc
How it was run: as §1

[8] = molecular target: Fuc(a1-2)Gal(b1-3)GlcNAc
How it was run: as §1

[9] = molecular target: Fuc(a1-2)Gal(b1-3)GlcNAc(b1-2)Man(a1-3)[Fuc(a1-2)Gal(b1-3)GlcNAc(b1-2)Man(a1-6)]Man(b1-4)GlcNAc(b1-4)GlcNAc
How it was run: as §1

[10] = molecular target: Fuc(a1-2)Gal(b1-3)GlcNAc(b1-2)Man(a1-3)[Fuc(a1-2)Gal(b1-3)GlcNAc(b1-2)Man(a1-6)]Man(b1-4)GlcNAc(b1-4)[Fuc(a1-6)]GlcNAc
How it was run: as §1

[11] = molecular target: Fuc(a1-2)Gal(b1-3)GlcNAc(b1-3)Gal(b1-4)Glc
How it was run: as §1

[12] = molecular target: Fuc(a1-2)Gal(b1-3)GlcNAc(b1-3)GalNAc
How it was run: as §1

[13] = molecular target: Fuc(a1-2)Gal(b1-3)GlcNAc(b1-3)[Fuc(a1-2)Gal(b1-3)GlcNAc(b1-6)]GalNAc
How it was run: as §1

[14] = molecular target: Fuc(a1-2)Gal(b1-3)GlcNAc(b1-3)[Gal(b1-4)GlcNAc(b1-6)]Gal(b1-4)Glc
How it was run: as §1

[15] = molecular target: Fuc(a1-2)Gal(b1-3)GlcNAc(b1-3)[Neu5Ac(a2-6)Gal(b1-4)GlcNAc(b1-6)]Gal(b1-4)Glc
How it was run: as §1

[16] = molecular target: Fuc(a1-2)Gal(b1-3)GlcNAc6S
How it was run: as §1

[17] = molecular target: Fuc(a1-2)Gal(b1-3)[Fuc(a1-4)]GlcNAc
How it was run: as §1

[18] = molecular target: Fuc(a1-2)Gal(b1-3)[Fuc(a1-4)]GlcNAc(b1-2)Man(a1-3)[Fuc(a1-2)Gal(b1-3)[Fuc(a1-4)]GlcNAc(b1-2)Man(a1-3)]Man(b1-4)GlcNAc(b1-4)GlcNAc
How it was run: as §1

[19] = molecular target: Fuc(a1-2)Gal(b1-3)[Fuc(a1-4)]GlcNAc(b1-2)Man(a1-3)[Fuc(a1-2)Gal(b1-3)[Fuc(a1-4)]GlcNAc(b1-2)Man(a1-6)]Man(b1-4)GlcNAc(b1-4)[Fuc(a1-6)]GlcNAc(b1-4)[Fuc(a1-6)]GlcNAc
How it was run: as §1

[20] = molecular target: Fuc(a1-2)Gal(b1-3)[Fuc(a1-4)]GlcNAc(b1-3)[Fuc(a1-3)[Gal(b1-4)]GlcNAc(b1-6)]Gal(b1-4)Glc
How it was run: as §1

[21] = molecular target: Fuc(a1-2)Gal(b1-3)[Fuc(a1-4)]GlcNAc(b1-3)[Gal(b1-4)GlcNAc(b1-6)]Gal(b1-4)Glc
How it was run: as §1

[22] = molecular target: Fuc(a1-2)Gal(b1-4)Glc
How it was run: as §1

[23] = molecular target: Fuc(a1-2)Gal(b1-4)Glc6S
How it was run: as §1

[24] = molecular target: Fuc(a1-2)Gal(b1-4)GlcNAc
How it was run: as §1

[25] = molecular target: Fuc(a1-2)Gal(b1-4)GlcNAc(b1-2)Man
How it was run: as §1

[26] = molecular target: Fuc(a1-2)Gal(b1-4)GlcNAc(b1-2)Man(a1-3)[Fuc(a1-2)Gal(b1-4)GlcNAc(b1-2)Man(a1-6)]Man(b1-4)GlcNAc(b1-4)GlcNAc
How it was run: as §1

[27] = molecular target: Fuc(a1-2)Gal(b1-4)GlcNAc(b1-2)Man(a1-3)[Fuc(a1-2)Gal(b1-4)GlcNAc(b1-2)Man(a1-6)]Man(b1-4)GlcNAc(b1-4)[Fuc(a1-6)]GlcNAc
How it was run: as §1

[28] = molecular target: Fuc(a1-2)Gal(b1-4)GlcNAc(b1-2)[Fuc(a1-2)Gal(b1-4)GlcNAc(b1-4)]Man(a1-3)[Fuc(a1-2)Gal(b1-4)GlcNAc(b1-2)Man(a1-6)]Man(b1-4)GlcNAc(b1-4)GlcNAc
How it was run: as §1

[29] = molecular target: Fuc(a1-2)Gal(b1-4)GlcNAc(b1-3)Gal(b1-4)GlcNAc
How it was run: as §1

[30] = molecular target: Fuc(a1-2)Gal(b1-4)GlcNAc(b1-3)Gal(b1-4)GlcNAc(b1-2)Man(a1-3)[Fuc(a1-2)Gal(b1-4)GlcNAc(b1-3)Gal(b1-4)GlcNAc(b1-2)Man(a1-6)]Man(b1-4)GlcNAc(b1-4)GlcNAc
How it was run: as §1

B1: F17-L (Escherichia coli) (protein)
chain: GPDDYVPSQIAVNTSTLPGVVIGPADAHTYPRVIGELAGTSNQYVFNGGAIALMRGKFTPALPKIGSITYTFHQGNSRDSSDFDIYDIGVSGLGIIIGMAGYWPATPLVPINSSGIYIDPVGANTNPNTYNGATASFGARLFVAFVATGRLPNGYITIPTRQLGTILLEAKRTSLNNKGLTAPVMLNGGRIQVQSQTHHHHHH
glycan array binding signal (z-score) [1]: -0.125 | glycan array binding signal (z-score) [2]: -0.139 | glycan array binding signal (z-score) [3]: -0.165 | glycan array binding signal (z-score) [4]: -0.082 | glycan array binding signal (z-score) [5]: -0.136 | glycan array binding signal (z-score) [6]: -0.143 | glycan array binding signal (z-score) [7]: -0.14 | glycan array binding signal (z-score) [8]: -0.129 | glycan array binding signal (z-score) [9]: 0.253 | glycan array binding signal (z-score) [10]: 0.17 | glycan array binding signal (z-score) [11]: 1.54 | glycan array binding signal (z-score) [12]: -0.144 | glycan array binding signal (z-score) [13]: 0.108 | glycan array binding signal (z-score) [14]: -0.125 | glycan array binding signal (z-score) [15]: -0.061 | glycan array binding signal (z-score) [16]: -0.097 | glycan array binding signal (z-score) [17]: -0.231 | glycan array binding signal (z-score) [18]: -0.049 | glycan array binding signal (z-score) [19]: -0.089 | glycan array binding signal (z-score) [20]: -0.044 | glycan array binding signal (z-score) [21]: -0.028 | glycan array binding signal (z-score) [22]: -0.198 | glycan array binding signal (z-score) [23]: -0.146 | glycan array binding signal (z-score) [24]: -0.107 | glycan array binding signal (z-score) [25]: 0.101 | glycan array binding signal (z-score) [26]: -0.001 | glycan array binding signal (z-score) [27]: 0.377 | glycan array binding signal (z-score) [28]: -0.006 | glycan array binding signal (z-score) [29]: -0.098 | glycan array binding signal (z-score) [30]: 0.361
